No constants are given. Whether binding was seen depends on the method and setting. Binding seen in cells or lysates may run through a third protein. Some binding calls cover weakened binding; strength is not graded here. Where a sequence is shown, tags or fusion partners need not be part of it.
Target: T1, Aldob, ectopically expressed in Huh7 (tag not told for the experiment) (UniProt P05062)
T1 sequence: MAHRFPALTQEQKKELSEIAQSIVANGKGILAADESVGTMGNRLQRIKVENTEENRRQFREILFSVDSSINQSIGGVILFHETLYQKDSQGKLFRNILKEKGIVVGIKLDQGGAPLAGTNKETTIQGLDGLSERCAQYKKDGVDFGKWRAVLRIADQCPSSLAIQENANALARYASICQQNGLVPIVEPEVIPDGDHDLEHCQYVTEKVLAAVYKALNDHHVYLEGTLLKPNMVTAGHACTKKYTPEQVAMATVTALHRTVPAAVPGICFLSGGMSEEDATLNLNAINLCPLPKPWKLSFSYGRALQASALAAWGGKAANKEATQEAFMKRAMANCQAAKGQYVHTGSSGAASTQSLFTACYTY
Experiment: co-IP; lysates of Huh7 cells transfected with the indicated constructs (and siRNAs) or of LM3-Aldob cells; anti-Flag or anti-Myc affinity gel or anti-Akt1 antibody with Protein A/G beads, overnight at 4°C, washed 4 times; in some panels cells serum-starved then 0.1 μM insulin or 100 ng/ml EGF, or MK2206 (1 μM) for 24 hours

The chains behind the UniProt entries cited, without tags or fusion partners.
UniProt P31751: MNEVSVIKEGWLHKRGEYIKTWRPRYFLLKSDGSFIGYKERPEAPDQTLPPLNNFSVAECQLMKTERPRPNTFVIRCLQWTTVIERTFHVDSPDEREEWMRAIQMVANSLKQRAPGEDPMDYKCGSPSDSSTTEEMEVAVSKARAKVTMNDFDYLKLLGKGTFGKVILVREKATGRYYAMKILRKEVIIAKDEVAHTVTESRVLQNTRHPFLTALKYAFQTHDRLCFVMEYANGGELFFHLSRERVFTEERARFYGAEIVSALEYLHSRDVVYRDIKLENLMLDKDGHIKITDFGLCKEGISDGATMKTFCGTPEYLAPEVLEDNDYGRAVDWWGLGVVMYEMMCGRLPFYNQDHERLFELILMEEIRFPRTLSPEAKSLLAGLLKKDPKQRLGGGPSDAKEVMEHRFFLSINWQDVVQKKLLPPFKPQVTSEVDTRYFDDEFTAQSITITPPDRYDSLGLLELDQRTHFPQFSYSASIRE

binding: binds
Substance: Akt2, ectopically expressed in Huh7 (from UniProt P31751 1-481)

Source: PMC7744066
